Reference: the supplement of paper PMC8728848
The list shows a part of the results.

How the values were obtained:
Experiment in all cases: glycan array binding signal (z-score within array); higher = stronger binding
Details in all cases: glycan notation: IUPAC condensed, linker removed
[1] = biological target: Fuc(a1-3)[Gal(b1-4)]GlcNAc(b1-2)Man(a1-6)[Gal(b1-4)GlcNAc(b1-2)Man(a1-3)]Man(b1-4)GlcNAc(b1-4)GlcNAc
Summary of the method: (§1)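 The binding signal is a Z-score computed within each array and averaged over linkers. Arrays of the same protein sequence at different concentrations or buffers were also averaged together. Data originate from 3228 arrays in the Consortium for Functional Glycomics database, kept only where the protein sequence was available.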

[2] = biological target: Fuc(a1-3)[Gal(b1-4)]GlcNAc(b1-3)Gal(b1-3)[Fuc(a1-4)]GlcNAc
Summary of the method: as §1

[3] = biological target: Fuc(a1-3)[Gal(b1-4)]GlcNAc(b1-3)GalNAc
Summary of the method: as §1

[4] = biological target: Fuc(a1-3)[Gal(b1-4)]GlcNAc(b1-4)Gal(b1-4)[Fuc(a1-3)]GlcNAc
Summary of the method: as §1

[5] = biological target: Fuc(a1-3)[Gal(b1-4)]GlcNAc(b1-4)Gal(b1-4)[Fuc(a1-3)]GlcNAc(b1-4)Gal(b1-4)[Fuc(a1-3)]GlcNAc
Summary of the method: as §1

[6] = biological target: Fuc(a1-3)[Gal(b1-4)]GlcNAc(b1-6)GalNAc
Summary of the method: as §1

[7] = biological target: Fuc(a1-3)[Gal(b1-4)]GlcNAc(b1-6)[Gal(b1-3)GlcNAc(b1-3)]Gal(b1-4)Glc
Summary of the method: as §1

[8] = biological target: Fuc(a1-3)[Gal(b1-4)]GlcNAc(b1-6)[Neu5Ac(a2-3)Gal(b1-3)]GalNAc
Summary of the method: as §1

[9] = biological target: Fuc(a1-3)[Gal(b1-4)]GlcNAc6S
Summary of the method: as §1

[10] = biological target: Fuc(a1-3)[Gal3S(b1-4)]Glc6S
Summary of the method: as §1

[11] = biological target: Fuc(a1-3)[Gal3S(b1-4)]GlcNAc
Summary of the method: as §1

[12] = biological target: Fuc(a1-3)[Gal3S(b1-4)]GlcNAc6S
Summary of the method: as §1

[13] = biological target: Fuc(a1-3)[GalNAc(b1-4)]GlcNAc
Summary of the method: as §1

[14] = biological target: Fuc(a1-3)[GalNAc(b1-4)]GlcNAc6S
Summary of the method: as §1

[15] = biological target: Fuc(a1-3)[GalNAc3S(b1-4)]GlcNAc
Summary of the method: as §1

[16] = biological target: Fuc(a1-3)[Neu5Ac(a2-3)]Gal(b1-4)GlcNAc(b1-3)GalNAc
Summary of the method: as §1

[17] = biological target: Fuc(a1-4)GlcNAc
Summary of the method: as §1

[18] = biological target: Fuc(b1-3)GlcNAc
Summary of the method: as §1

[19] = biological target: Gal(a1-2)Gal
Summary of the method: as §1

[20] = biological target: Gal(a1-3)Gal
Summary of the method: as §1

[21] = biological target: Gal(a1-3)Gal(b1-3)GlcNAc
Summary of the method: as §1

[22] = biological target: Gal(a1-3)Gal(b1-3)GlcNAc(b1-2)Man(a1-3)[Gal(a1-3)Gal(b1-3)GlcNAc(b1-2)Man(a1-6)]Man(b1-4)GlcNAc(b1-4)GlcNAc
Summary of the method: as §1

[23] = biological target: Gal(a1-3)Gal(b1-3)GlcNAc(b1-3)GalNAc
Summary of the method: as §1

[24] = biological target: Gal(a1-3)Gal(b1-3)GlcNAc(b1-6)GalNAc
Summary of the method: as §1

[25] = biological target: Gal(a1-3)Gal(b1-3)[Fuc(a1-4)]GlcNAc(b1-2)Man(a1-3)[Gal(a1-3)Gal(b1-3)[Fuc(a1-4)]GlcNAc(b1-2)Man(a1-6)]Man(b1-4)GlcNAc(b1-4)GlcNAc
Summary of the method: as §1

[26] = biological target: Gal(a1-3)Gal(b1-4)Glc
Summary of the method: as §1

[27] = biological target: Gal(a1-3)Gal(b1-4)GlcNAc
Summary of the method: as §1

[28] = biological target: Gal(a1-3)Gal(b1-4)GlcNAc(b1-3)GalNAc
Summary of the method: as §1

[29] = biological target: Gal(a1-3)Gal(b1-4)GlcNAc(b1-6)GalNAc
Summary of the method: as §1

[30] = biological target: Gal(a1-3)Gal(b1-4)[Fuc(a1-3)]GlcNAc
Summary of the method: as §1

[31] = biological target: Gal(a1-3)Gal(b1-4)[Fuc(a1-3)]GlcNAc(b1-2)Man(a1-3)[Gal(a1-3)Gal(b1-4)[Fuc(a1-3)]GlcNAc(b1-2)Man(a1-6)]Man(b1-4)GlcNAc(b1-4)GlcNAc
Summary of the method: as §1

[32] = biological target: Gal(a1-3)GalNAc
Summary of the method: as §1

[33] = biological target: Gal(a1-3)[Gal(a1-4)]Gal(b1-4)GlcNAc
Summary of the method: as §1

[34] = biological target: Gal(a1-4)Gal(b1-3)GlcNAc(b1-2)Man(a1-3)[Gal(a1-4)Gal(b1-3)GlcNAc(b1-2)Man(a1-6)]Man(b1-4)GlcNAc(b1-4)GlcNAc
Summary of the method: as §1

[35] = biological target: Gal(a1-4)Gal(b1-4)Glc
Summary of the method: as §1

[36] = biological target: Gal(a1-4)Gal(b1-4)GlcNAc
Summary of the method: as §1

[37] = biological target: Gal(a1-4)Gal(b1-4)GlcNAc(b1-2)Man(a1-3)[Gal(a1-4)Gal(b1-4)GlcNAc(b1-2)Man(a1-6)]Man(b1-4)GlcNAc(b1-4)GlcNAc
Summary of the method: as §1

[38] = biological target: Gal(a1-4)Gal(b1-4)GlcNAc(b1-3)Gal(b1-4)Glc
Summary of the method: as §1

[39] = biological target: Gal(a1-4)GlcNAc
Summary of the method: as §1

[40] = biological target: Gal(a1-6)Glc
Summary of the method: as §1

[41] = biological target: Gal(b1-2)Gal
Summary of the method: as §1

[42] = biological target: Gal(b1-3)Gal
Summary of the method: as §1

[43] = biological target: Gal(b1-3)Gal(b1-4)GlcNAc
Summary of the method: as §1

[44] = biological target: Gal(b1-3)Gal(b1-4)GlcNAc(b1-2)Man(a1-3)[Gal(b1-3)Gal(b1-4)GlcNAc(b1-2)Man(a1-6)]Man(b1-4)GlcNAc(b1-4)GlcNAc
Summary of the method: as §1

[45] = biological target: Gal(b1-3)GalNAc
Summary of the method: as §1

B1: Calsepa (Calystegia sepium), P93114 (protein)
chain: MAVPMDTISGPWGNNGGNFWSFRPVNKINQIVISYGGGGNNPIALTFSSTKADGSKDTITVGGGGPDSITGTEMVNIGTDEYLTGISGTFGIYLDNNVLRSITFTTNLKAHGPYGQKVGTPFSSANVVGNEIVGFLGRSGYYVDAIGTYNRHK
- glycan array binding signal (z-score) [1]: 0.752
- glycan array binding signal (z-score) [2]: -0.247
- glycan array binding signal (z-score) [3]: -0.27
- glycan array binding signal (z-score) [4]: -0.253
- glycan array binding signal (z-score) [5]: -0.25
- glycan array binding signal (z-score) [6]: -0.264
- glycan array binding signal (z-score) [7]: -0.272
- glycan array binding signal (z-score) [8]: -0.264
- glycan array binding signal (z-score) [9]: -0.247
- glycan array binding signal (z-score) [10]: -0.185
- glycan array binding signal (z-score) [11]: -0.213
- glycan array binding signal (z-score) [12]: -0.245
- glycan array binding signal (z-score) [13]: -0.236
- glycan array binding signal (z-score) [14]: -0.262
- glycan array binding signal (z-score) [15]: -0.265
- glycan array binding signal (z-score) [16]: -0.154
- glycan array binding signal (z-score) [17]: -0.244
- glycan array binding signal (z-score) [18]: -0.248
- glycan array binding signal (z-score) [19]: -0.242
- glycan array binding signal (z-score) [20]: -0.251
- glycan array binding signal (z-score) [21]: -0.249
- glycan array binding signal (z-score) [22]: -0.137
- glycan array binding signal (z-score) [23]: -0.272
- glycan array binding signal (z-score) [24]: -0.269
- glycan array binding signal (z-score) [25]: -0.189
- glycan array binding signal (z-score) [26]: -0.261
- glycan array binding signal (z-score) [27]: -0.244
- glycan array binding signal (z-score) [28]: -0.269
- glycan array binding signal (z-score) [29]: -0.267
- glycan array binding signal (z-score) [30]: -0.238
- glycan array binding signal (z-score) [31]: -0.165
- glycan array binding signal (z-score) [32]: -0.247
- glycan array binding signal (z-score) [33]: -0.25
- glycan array binding signal (z-score) [34]: 0.839
- glycan array binding signal (z-score) [35]: -0.252
- glycan array binding signal (z-score) [36]: -0.251
- glycan array binding signal (z-score) [37]: 3.47
- glycan array binding signal (z-score) [38]: -0.248
- glycan array binding signal (z-score) [39]: -0.247
- glycan array binding signal (z-score) [40]: -0.246
- glycan array binding signal (z-score) [41]: -0.252
- glycan array binding signal (z-score) [42]: -0.247
- glycan array binding signal (z-score) [43]: -0.247
- glycan array binding signal (z-score) [44]: 3.79
- glycan array binding signal (z-score) [45]: -0.246
